# Results taken from PubChem BioAssay AID686979 (National Center for Advancing Translational Sciences (NCATS), 2013).
# Hit rate of the full screen: of about 420,000 compounds, about 50,000 (12%) were called active. The inconclusive results got no clear call from the source; some entries with a clear call stand among them for comparison. The call rests on the fitted dose curve; in most records, active means well fitted inhibition curve with a large enough effect; inconclusive means small, poorly fitted or top-dose-only effect; inactive means flat fitted curve, though single readings scatter. Potencies of inconclusive entries are left out as doubtful fits. Where a SMILES comes first, the peptide text is derived from it. [ ]: non-standard residue; d: D form. The star is where a group is joined. ξ: configuration not given here. Cbz = O=C(OCc1ccccc1)*; OBn = c1ccc(CO*)cc1; ξP = O=C(O)C1CCCN1
# Experiment: qHTS for Inhibitors of human tyrosyl-DNA phosphodiesterase 1 (TDP1): qHTS in cells in presence of CPT; further: nearly all actives have a fitted effect of over 55% in size
# Details: chicken DT40 Tdp1-/-;hTDP1 cells + 20 nM CPT, ATP luminescence, 48 h; activity change, negative = growth inhibition: at 46.2 µM (top of the series) unless noted
# Outline: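 Chicken DT40 Tdp1-/- cells stably complemented with human TDP1 were seeded at 400 cells/well in medium containing 20 nM camptothecin, exposed to pin-transferred compounds, and grown at 37 °C for at least 48 hr. Viability was read as ATP luminescence.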
# On the % scale 0 is the no-effect control and ±100 the full control effect; potency means the concentration at half of the fitted maximal effect; tags describe the fitted curve by direction and shape.
Compound,Potency,"activity change, negative = growth inhibition"
CCN1C(=O)/C(=C/C=C2/Sc3ccc4ccccc4c3N2CCO)SC1=S,"inconclusive [inhibitor, partial curve, poor fit]",
Cc1cc(C)c(Cn2cnc3nc4c(cc3c2=O)CCCC4)c(C)c1,,inactive: -20.4%
Cc1ccc(NC(=O)c2cc(NC(=O)c3ccco3)ccc2N2CCOCC2)cc1,"inconclusive [inhibitor, partial curve, poor fit]",
O=C(COc1ccc(S(=O)(=O)N2CCOCC2)cc1Cl)NC1CCCCC1,"inconclusive [inhibitor, single point]",
Cc1ccc(O)c(CNc2nc3ccccc3n2C)c1,"inconclusive [inhibitor, single point]",
CC(C)NS(=O)(=O)c1ccc(NC(=S)NC(=O)c2cccc([N+](=O)[O-])c2)cc1,,inactive: -20.3%
CCNC(=O)C1(C)CCN1C(=O)Cc1ccc(C(C)C)cc1 (stereo unspecified),"inconclusive [inhibitor, partial curve, poor fit]",
NC(Cc1cnc[nH]1)C(=O)Nc1ccc2ccccc2c1 (stereo unspecified),,inactive: -19.4%
COc1ccc(OC(=O)c2ccc(OC)c(S(=O)(=O)N3CCOCC3)c2)cc1,,inactive: -2.3%
O=C(CNC(=O)OCc1ccccc1)NCC(=O)N1CCCC1C(=O)OCc1ccccc1 (stereo not drawn) (Cbz-Gly-Gly-[ξP]-OBn),"inconclusive [inhibitor, single point]",
CCOC(=O)CC1ON(C)C(=O)N1c1ccc([N+](=O)[O-])cc1 (stereo unspecified),"inconclusive [inhibitor, partial curve]",
CC(=O)Nc1ccc(S(=O)(=O)N2CCN(CC(=O)N3CCOCC3)CC2)cc1,,inactive: -14.1%
CCc1cc(=O)oc2c(C)c(OCC(=O)Nc3ccc(S(=O)(=O)N(CC)CC)cc3)ccc12,"inconclusive [inhibitor, single point]",
Cc1cccc(CSc2nc3nc(C)cc(C)n3n2)c1,"inconclusive [inhibitor, partial curve]",
CC(C)(C)n1nnnc1C(c1cccs1)N(Cc1ccc(Cl)cc1)CC1CCCO1 (stereo unspecified),active: 20.6 µM,
CCCc1ccc(C(O)c2ncc(-c3ccc(OC)cc3)[nH]2)cc1 (stereo unspecified),"inconclusive [inhibitor, partial curve, poor fit]",
COc1ccc(CC(=O)NCC2CCCN(Cc3ccc(F)c(OC)c3)C2)cc1 (stereo unspecified),,inactive: -11.6%
COC(=O)c1ccc([N+](=O)[O-])cc1N1C(=O)C2C3CCC(C3)C2C1=O (stereo unspecified),,inactive: -25.5%
CC(=O)NC(Cc1ccccc1F)C(=O)NC1CCN(C(=O)Nc2ccc(C)cc2)CC1 (stereo unspecified),,inactive: -15.7%
C/C(=N\Nc1nc(-c2ccccn2)nc2ccccc12)c1ccc(F)cc1,active: 2.59 µM,
O=C(NCCc1ccccc1)C1CCN(Cc2cccc3ccccc23)CC1,"inconclusive [inhibitor, single point]",
COc1ccccc1N1CCN(C(=O)c2ccc3noc(-c4ccccc4)c3c2)CC1,"inconclusive [inhibitor, single point]",
Cc1nn2c(C)c(C(=O)NCc3cccc(Br)c3)cnc2c1-c1ccccc1,"inconclusive [inhibitor, single point]",
O=S(=O)(c1ccc(F)cc1)N1CCN(Cc2ccccn2)CC1,,inactive: -19.5%

Compound,Potency,"activity change, negative = growth inhibition"
COc1oc(C(=O)NC2CCCCC2)c(-c2ccc(Cl)cc2)c1S(=O)(=O)c1ccccc1,"inconclusive [inhibitor, single point]",
Cc1ccc(Nc2nc(CSc3nnnn3-c3ccccc3)cs2)cc1,"inconclusive [inhibitor, single point]",
COCCN(CC(=O)Nc1cccc(C)c1C)C(=O)c1cc2c(s1)CCC2,,inactive: 5.69%
CO[C@H]1O[C@@H]2O[C@@]3(C)CC[C@@H]4[C@@H](C)CC[C@@H]([C@H]1C)[C@@]24OO3,active: 0.631 µM,
S=C(NCCc1ccccc1)NCC(c1ccco1)N1CCCCC1 (stereo unspecified),"inconclusive [inhibitor, single point]",
COc1ccc(N2C(=O)N3[C@H](c4cccc(C)c4)[C@@H]4C(=O)N(Cc5ccccc5)C(=O)[C@@H]4[C@]3(Cc3ccccc3)C2=O)cc1,active: 11.6 µM,
COC(=O)c1cc(S(=O)(=O)N(Cc2ccccc2)C(C)(C)C)c[nH]1,active: 18.4 µM,
COc1ccccc1NC(=O)Nc1nc(CC(=O)NC2CCCC2)cs1,"inconclusive [inhibitor, single point]",
Fc1cccc(F)c1/C=C/c1ccc2ccccc2n1,,inconclusive: -33% [inhibitor]
Cc1onc(C(=O)NC2CCCCC2)c1[N+](=O)[O-],"inconclusive [inhibitor, single point]",
COc1cc(C=C(c2nc3ccccc3s2)c2nc3ccccc3s2)cc(OC)c1O,active: 23.1 µM,
COc1ccccc1NC(=O)Nc1nc(CC(=O)NCc2cccnc2)cs1,"inconclusive [inhibitor, single point]",
O=C(Nc1nc2c(s1)CCCC2)c1nn(Cc2ccccc2)c(=O)c2ccccc12,"inconclusive [inhibitor, partial curve]",
Cc1ccc(Cl)cc1N1CCN(C(=O)COc2cc(=O)n(C)c3ccccc23)CC1,"inconclusive [inhibitor, single point]",
Cc1cccc(NC(=O)CN2C(=O)COc3ccc(Cl)cc32)c1C,,inactive: -18.5%
COc1cc2c(cc1OC)C(COc1ccccc1OC)N(C(=O)c1ccc(S(=O)(=O)N(C)C)cc1)CC2 (stereo unspecified),"inconclusive [inhibitor, single point]",
CC(=O)N1CCc2c(sc3c2c(=O)n(Cc2ccccc2)c(=O)n3Cc2ccccc2Cl)C1,"inconclusive [inhibitor, single point]",
CC1C(=O)CC(c2ccccc2)N(C)C1c1ccccc1 (stereo unspecified),"inconclusive [inhibitor, single point]",
Cc1ccc(-c2csc3nc4ccc(C(=O)NCCO)cc4c(=O)n23)cc1,"inconclusive [inhibitor, single point]",
Cc1ccc(/C=C/c2onc(C)c2S(=O)(=O)N2CCC(C(=O)N3CCN(c4cc(C)ccc4C)CC3)CC2)cc1,"inconclusive [inhibitor, partial curve]",
O=C(CSc1nccn1Cc1ccco1)Nc1ccccc1,"inconclusive [inhibitor, full curve, poor fit]",
CNC(=O)CN(CCc1ccccc1)S(=O)(=O)c1ccc(OC)cc1,,inactive: 4.88%
COC(=O)c1cc(N=C(N)N=C(N)N)cc(C(=O)OC)c1,,inactive: 35.6%
CCC1CCCCN1CCCNC(=O)c1c(O)nc2cc(C)ccn2c1=O (stereo unspecified),inactive,

Compound,Potency,"activity change, negative = growth inhibition"
CC1CN(C(=O)N2CCC(C(=O)NCc3cccs3)CC2)c2ccccc2O1 (stereo unspecified),,inactive: -3.5%
COc1ccc2[nH]c(=O)c(CN(CCN3CCCC3)C(=O)Nc3ccccc3Cl)cc2c1,"inconclusive [inhibitor, partial curve, poor fit]",
Cc1ccc(NC(=S)NC(=O)c2ccc(F)cc2)cc1S(=O)(=O)Nc1cccc(Cl)c1,active: 5.17 µM,
COc1ccc(NC(=O)C2CCN(c3ccc(Sc4ccc(C)cc4)nn3)CC2)cc1,,inactive: -25.7%
COC(=O)c1cc2sc(Cl)cc2n1Cc1nc(-c2ccccc2C)oc1C,,inactive: 6.65%
CC1CCc2c(sc3ncnc(SCC(=O)N(C)C4CCS(=O)(=O)C4)c23)C1 (stereo unspecified),"inconclusive [inhibitor, single point]",
NC(=O)C1CCN(C(=O)c2ccco2)CC1,,inactive: -2.93%
CCCN1C(=O)C(O)(CC(=O)c2ccc3c(c2)OCCO3)c2ccccc21 (stereo unspecified),"inconclusive [inhibitor, single point]",
COC(=O)CCc1cccc(CCC(=O)OC)c1,,inactive: 7.01%
COc1ccc(Nc2nc(NCc3ccco3)nc(N/N=C/c3ccccc3Cl)n2)cc1,active: 20.6 µM,
COc1cc(-c2nc(-c3ccccc3)c(-c3ccc(Br)cc3)[nH]2)cc(OC)c1O,"inconclusive [inhibitor, single point]",
CN(Cc1ccco1)c1ncnc2ccc(-c3ccoc3)cc12,active: 18.4 µM,
CCCCN(CC)C(=O)CSc1nc2ccccc2c(=O)n1Cc1ccco1,"inconclusive [inhibitor, single point]",
O=C(Nc1ccc2ccccc2c1)c1ccc2[nH]c(=O)c(=O)[nH]c2c1,"inconclusive [inhibitor, partial curve, poor fit]",
CCOC(=O)c1sc(-n2[nH]c(C)cc2=O)nc1C,,inactive: 1.75%
CC(NC(=O)Nc1nnc(C(F)(F)F)s1)(C(F)(F)F)C(F)(F)F,active: 4.11 µM,
Cc1ccc(N=N/C(=C\O)C(=O)c2ccncc2)cc1,"inconclusive [inhibitor, single point]",
Cc1ccc(NC(=O)N2CCc3ccccc3C2)cc1,,inactive: -3.3%
CC(=O)N(c1ccc2oc(=O)sc2c1)S(=O)(=O)c1cccs1,,inactive: -27.3%
COc1ccc(C=C(c2ccc(OC)cc2)c2ccc(OC)cc2)cc1,,inactive: -22%
COc1ccc(Nc2oc(/C=C/c3cc(OC)c(OC)c(OC)c3)nc2C#N)cc1,"inconclusive [inhibitor, single point]",
Cc1ccc2nc(-c3ccccc3)cc(C(=O)N3CCc4ccccc4C3)c2c1,"inconclusive [inhibitor, single point]",
Cc1cccc(OCc2nnc(SCC(=O)N3c4ccccc4Sc4ccc(Cl)cc43)o2)c1,"inconclusive [inhibitor, single point]",
